The campaign covered roughly 200,000 compounds. About 10 (0.005%) were called active. The inconclusive results got no clear call from the source; some entries with a clear call stand among them for comparison. Calls follow the shape of the dose curve; as a rule, active = well fitted inhibition curve with a large enough effect; inconclusive = small, poorly fitted or top-dose-only effect, or effect the other way, or another doubt; inactive = no such curve, though single readings can be large or run the other way. Potencies of inconclusive entries are left out as doubtful fits.
molecular target: Lysosomal alpha-glucosidase (Homo sapiens) (UniProt P10253); experiment: qHTS Assay for Inhibitors of Human alpha-Glucosidase as a Potential Chaperone Treatment of Pompe Disease; conditions: purified human GAA, 4-MU-alpha-glucoside fluorescence; activity change, negative = inhibition: at 76.9 µM (top of the series) unless noted;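 as to activity change, negative = inhibition: plate controls were uninhibited enzyme wells for no effect and no-enzyme background for full effect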
Outline: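 Human alpha-glucosidase, 4 nM, pre-mixed with test compounds before 400 uM 4-methylumbelliferyl substrate; 20 min room temperature at pH 5.0. Fluorescence read after pH 10 stop; AC50 values from Hill-equation fits.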
Potency is read from the fitted curve at half-maximal effect; tags tell the direction and shape of the fitted curve.

| SMILES | activity change, negative = inhibition | Potency |
| --- | --- | --- |
| O=c1[nH]c(N/N=C\c2ccc(F)cc2)nc2ccccc12 | inconclusive: 24.6% [activator] | – |
| Nc1nc(-c2cccnc2)nn1C(=O)c1ccc(F)cc1 | – | inactive |
| Nc1c(C(=O)NCCN2CCOCC2)c2nc3ccccc3nc2n1-c1cccc(F)c1 | – | inconclusive [activator, partial curve] |
| CCN1CCN(C(=S)c2ccc(Cl)cc2)CC1 | – | inactive |
| COc1ccc(C(=O)O)cc1NC(=S)NC(=O)c1ccc(-c2ccc(Cl)cc2)o1 | – | inconclusive [inhibitor, single point] |
| CCOC(=O)C1(Cc2ccccc2C(F)(F)F)CCN(C(C)CSC)CC1 (stereo not drawn) | – | inactive |
| CCc1nc2ccc(F)cc2c(C(=O)NC2CCCCC2C)c1C (stereo not drawn) | inconclusive: -15.2% [inhibitor] | – |
| CCS(=O)(=O)Nc1ccc(C2=NN(C(=S)Nc3ccccc3)C(c3ccco3)C2)cc1 (stereo not drawn) | – | inconclusive [activator, single point] |
| Cc1ccc(Cl)cc1NC(=O)CSC(N)=O | – | inconclusive [inhibitor, single point] |
| Cc1cc(=O)oc2c(CN3CC(C)OC(C)C3)c(O)c(Cl)cc12 (stereo not drawn) | – | inconclusive [activator, full curve] |
| O=S(=O)(NCc1cn2ccsc2n1)c1ccc(Oc2ccccc2)cc1 | – | inconclusive [inhibitor, single point] |
| CCOC(=O)C1CCN(S(=O)(=O)c2cccc(-c3csc(C)n3)c2)CC1 | – | inconclusive [inhibitor, partial curve] |
| CCc1cc2c(SCC(=O)c3ccc(Cl)s3)ncnc2s1 | – | inconclusive [inhibitor, full curve, poor fit] |
| CCOC(=O)N1CCC(NCCNC(=O)c2ccco2)CC1 | inconclusive: 11.2% [activator] | – |
| Cc1ccc2c(c1Br)/C(=N/N1C(=O)c3ccccc3C1=O)C(=O)N2 | inconclusive: 18.3% [activator] | – |
| CC(C)Oc1cccc(-c2cc(C(=O)N3CCN(c4ncccn4)CC3)c3ccccc3n2)c1 | – | inconclusive [inhibitor, single point] |
| Cc1cc(-c2ccccc2)nc2cc(C(=O)N(Cc3ccccc3)Cc3ccccc3)nn12 | – | inconclusive [inhibitor, single point] |
| Cc1ccccc1C(=O)N=c1c(C#N)cc2c(=O)n3cccc(C)c3nc2n1Cc1ccco1 | – | inconclusive [activator, partial curve] |
| CCC1CCCCN1C/C=C/c1ccccc1[N+](=O)[O-] (stereo not drawn) | inconclusive: -19% [inhibitor] | – |
| CCOC(=O)COc1ccc2c(c1)C(=O)CC(C)(c1cccnc1)O2 (stereo not drawn) | – | inconclusive [activator, partial curve] |
| Cc1ccc(O)c(NC(=O)c2cccc(NC(=O)c3ccco3)c2)c1 | – | inactive |
| COc1ccc(CCNC(=O)c2ccc(CNc3nc(=S)[nH]c4ccccc34)cc2)cc1OC | – | inconclusive [inhibitor, single point] |

| SMILES | activity change, negative = inhibition | Potency |
| --- | --- | --- |
| CC(=O)c1ccc(C(=O)N2CCc3c([nH]c4ccccc34)C2c2ccccn2)s1 (stereo not drawn) | – | inconclusive [inhibitor, single point] |
| COCCNC(=O)C(c1ccc(C)o1)N(C(=O)Cn1nnc2ccccc21)c1ccccc1 (stereo not drawn) | inconclusive: 3.55% [activator] | – |
| C=CCN1C(=O)C(O)(CC(=O)c2ccco2)c2cc(Br)ccc21 (stereo not drawn) | – | inconclusive [inhibitor, full curve] |
| CCOC(=O)c1c(C)nc2sc(C(=O)Nc3ccc(C(C)=O)cc3)c(N)c2c1-c1ccc(OC)cc1 | – | inconclusive [inhibitor, partial curve] |
| CNC(=S)N/N=C/c1cn(CCOc2ccccc2OC)c2ccccc12 | – | inconclusive [inhibitor, partial curve, poor fit] |
| O=C(O)C1CC=CCC1C(=O)NCCc1ccccc1 (stereo not drawn) | – | inconclusive [inhibitor, full curve, poor fit] |
| COc1ccc(C(=O)/C=C/C(=O)N(CC(=O)NC2CCCCC2)Cc2cccs2)c(O)c1 | inconclusive: 17.5% [activator] | – |
| NC1=C(c2ccc([N+](=O)[O-])cc2)C(=O)CO1 | – | inconclusive [inhibitor, single point] |
| O=c1oc2ccccc2c(Nc2ccc(O)cc2)c1[N+](=O)[O-] | – | inactive |
| S=C(Nc1cccnc1)Nc1ccccc1Br | inconclusive: 17.3% [activator] | – |
| Cc1cccc(-c2c3c(=O)n(C)c(=O)n(C)c3cn2-c2ccccc2O)c1 | – | inactive |
| Cc1c(C)c(C)c(CN2CCSCC2)c(C)c1C | – | inconclusive [inhibitor, single point] |
| NS(=O)(=O)c1ccc(N2N=C(c3ccccc3)CC2c2cccc(F)c2)cc1 (stereo not drawn) | – | inconclusive [activator, partial curve] |
| O=C1CN(C(=O)/C=C/c2ccc(Cl)cc2Cl)CCN1 | – | inconclusive [inhibitor, single point] |
| CC(C)NC(=S)NC(=O)c1ccc(Cl)cc1Cl | – | inconclusive [inhibitor, full curve, poor fit] |
| COC(=O)c1ccc(CSc2nnc(Nc3ccc(C)cc3)s2)o1 | – | inconclusive [inhibitor, partial curve] |
| Cc1cc(N2CCN(C)CC2)nc2ccc(NC(=O)CCC(=O)NCc3ccco3)cc12 | – | inconclusive [activator, single point] |
| Cn1c(=O)c2cn3c(c2n(C)c1=O)C(c1ccccc1)CC(c1ccccc1)=N3 (stereo not drawn) | inconclusive: -15.7% [inhibitor] | – |
| O=C(CN1C(=O)c2cccc3cccc1c23)N1CCN(c2ccccc2)CC1 | inconclusive: -16.4% [inhibitor] | – |
| CCOC(=O)CCn1cc(F)c(=O)[nH]c1=O | inconclusive: 15.3% [activator] | – |
| COc1ccc(OC)c(Nc2cc(C)nc3nc(C)nn23)c1 | – | inconclusive [inhibitor, single point] |

Reference: PubChem BioAssay AID1466 (National Center for Advancing Translational Sciences (NCATS), 2008)
